{
  "source": "PubChem BioAssay AID1346428",
  "about": "(National Center for Advancing Translational Sciences (NCATS), 2018)",
  "note": "About 1,200 (2.5%) of roughly 48,000 compounds were called active. The shares of active, inactive and inconclusive entries below differ from those in the screen.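 How the source made its calls: active means activation of at least 60% and not above a set upper limit (about 1 call in 100 departs from these limits); inconclusive means activation of 40% to 60%, or above that upper limit; inactive means activation under 40%.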 Where a SMILES comes first, the peptide text is derived from it.",
  "data": [
    {"target": "Probable G-protein coupled receptor 32 (Homo sapiens) (UniProt O75388)", "sequence (O75388 whole entry, looked up)": "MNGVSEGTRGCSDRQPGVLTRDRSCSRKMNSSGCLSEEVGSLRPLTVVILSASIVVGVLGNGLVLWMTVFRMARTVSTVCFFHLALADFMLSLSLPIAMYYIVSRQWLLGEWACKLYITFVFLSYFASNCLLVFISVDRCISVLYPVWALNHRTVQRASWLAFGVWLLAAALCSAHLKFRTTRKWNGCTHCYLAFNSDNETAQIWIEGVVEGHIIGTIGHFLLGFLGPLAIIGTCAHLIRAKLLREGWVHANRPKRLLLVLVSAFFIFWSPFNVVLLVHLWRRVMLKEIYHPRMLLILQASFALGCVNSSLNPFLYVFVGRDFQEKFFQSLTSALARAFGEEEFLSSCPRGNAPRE", "assay": "qHTS for Agonists of Human Resolvin D1 Receptor DRV1; further: 0% is about no effect", "settings": "CHO-K1 GPR32 beta-arrestin PathHunter luminescence, 90 min; at 76.9 µM; stronger effect = higher value; zero percent set by DMSO-only wells", "procedure,_shortened": "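Luminescent readout of beta-Gal complementation quantifies ligand-induced beta-arrestin association with GPR32 in CHO-K1 cells; 90 min compound incubation at 37 °C, detection 1 h at room temperature.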", "values": [
      {"smiles": "O=C(Nc1ccc(Br)cc1)C1CCN(S(=O)(=O)c2cccc3nsnc23)CC1", "activation": "inconclusive: 53.4%"},
      {"smiles": "CN1CCCC(n2nc(Cc3ccc(Cl)cc3)c3ccccc3c2=O)CC1", "note": "(stereo unspecified)", "activation": "inconclusive: 161%"},
      {"smiles": "CC(C)NS(=O)(=O)c1ccc2nc(NC(=O)c3cncc(Br)c3)sc2c1", "activation": "inconclusive: 58.8%"},
      {"smiles": "Cc1ccc(C(C)(C)C)c(OCC(=O)NCCc2nc3ccccc3[nH]2)c1", "activation": "active: 61.3%"},
      {"smiles": "CN(C(=O)CSc1nc2ccc(NC(=O)c3ccco3)cc2s1)c1ccccc1", "activation": "inconclusive: 55.5%"},
      {"smiles": "Cc1ccc(-n2ncc3c(NCCc4ccccc4)ncnc32)cc1Cl", "activation": "active: 117%"},
      {"smiles": "Cc1c(Cl)cccc1-c1ccc(C(=O)Nc2ccc3oc(-c4cccnc4)nc3c2)o1", "activation": "inactive: -7.93%"},
      {"smiles": "CCCCCCCCCCCCCCCCCCN(C)C", "activation": "inactive: 2.46%"},
      {"smiles": "O=C(NCCc1csc(-c2cccc(F)c2)n1)c1ccco1", "activation": "inconclusive: 128%"},
      {"smiles": "Cc1[nH]c2ccccc2c1C1(O)C(=O)Nc2ccc(Cl)cc21", "note": "(stereo unspecified)", "activation": "inconclusive: 214%"},
      {"smiles": "CCOC(=O)c1c(NC(=O)C(C)Oc2ccccc2F)sc(C(C)=O)c1C", "note": "(stereo unspecified)", "activation": "inconclusive: 153%"},
      {"smiles": "CCOc1ccc(CCNc2ncnc3onc(C)c23)cc1OCC", "activation": "active: 63.5%"},
      {"smiles": "O=C(CN1C(=O)COc2ccc(S(=O)(=O)NC3CCCC3)cc21)Nc1ccc(F)c(Cl)c1", "activation": "inconclusive: 146%"},
      {"smiles": "Cc1ccc2nc(-c3ccc(N4CCOCC4)cc3)c(Nc3ccccc3C)n2c1", "activation": "inactive: -22.3%"},
      {"smiles": "Cc1[nH]c2ccccc2c1C1(O)C(=O)N(Cc2ccccc2)c2ccc(Br)cc21", "note": "(stereo unspecified)", "activation": "inconclusive: 230%"},
      {"smiles": "Cc1cccc(C(=O)Nc2nnc(S(=O)(=O)N3CCOCC3)s2)c1", "activation": "inconclusive: 55.5%"},
      {"smiles": "Cc1cccc(N2CCN(C(=O)CCNS(=O)(=O)c3ccc4c(c3)CCN4C(=O)C3CC3)CC2C)c1", "note": "(stereo unspecified)", "activation": "inconclusive: 122%"},
      {"smiles": "COc1ccc(NC(=O)CSc2nc3ccccc3n2CC(=O)NCc2ccc(F)cc2)cc1", "activation": "inconclusive: 51.3%"},
      {"smiles": "O=C(Nc1ccc(F)cc1)c1ccc(-n2cnc3cccnc32)cc1", "activation": "inconclusive: 51.8%"},
      {"smiles": "O=C(NCCc1ccc(Cl)cc1)c1ccc(CS(=O)(=O)Cc2ccc(F)cc2)o1", "activation": "inconclusive: 53.3%"},
      {"smiles": "COC(=O)c1c(SC)nc2ccccc2c1OCc1cccc(C)c1", "activation": "inactive: -28.4%"},
      {"smiles": "Cc1ccc(NC(=O)Cn2nnnc2-c2ccccc2N)cc1", "activation": "inconclusive: 50.8%"},
      {"smiles": "COc1cc(C(=O)Nc2ccc3nn(-c4ccc(F)cc4)nc3c2)cc(OC)c1OC", "activation": "inconclusive: 174%"},
      {"smiles": "COc1ccccc1NC(=O)C1CCCN(c2nnc(C)c3c(C)n(-c4ccccc4)nc23)C1", "note": "(stereo unspecified)", "activation": "inactive: 2.64%"},
      {"smiles": "COc1cc2nc(N3CCN(C(=O)c4ccco4)CC3)nc(N)c2cc1OC", "activation": "inconclusive: 58.8%"},
      {"smiles": "COC(=O)c1c(N)n(-c2ccc(OC)c(OC)c2)c2nc3ccccc3nc12", "activation": "inactive: 10.7%"},
      {"smiles": "COc1ccc(OC)c2sc(N3CCN(C(=O)CCS(=O)(=O)c4ccc(F)cc4)CC3)nc12", "activation": "inconclusive: 146%"},
      {"smiles": "Cc1cccc(OCC(=O)Nc2cc(-c3ccccc3F)nn2-c2ccccc2)c1", "activation": "inconclusive: 125%"},
      {"smiles": "COc1cccc(C(=O)c2c(N)c(-c3nc(-c4ccccc4)cs3)c3ccccn23)c1", "activation": "inactive: -8.93%"},
      {"smiles": "Cn1cc(-c2cc3n(n2)CCC(=O)N3CCCC(=O)NCc2ccc(Cl)cc2)c2ccccc21", "activation": "inconclusive: 291%"},
      {"smiles": "CCN(CC)c1ccc(NC(=O)C2CCN(c3nnc(-n4cccc4)s3)CC2)c(C)c1", "activation": "active: 60.4%"},
      {"smiles": "Cc1cc(C)n(C(C)CC(=O)Nc2cccc(C(F)(F)F)c2)n1", "note": "(stereo unspecified)", "activation": "inactive: -0.904%"},
      {"smiles": "Cc1c(Cl)ccc2sc(N3CCN(C(=O)C(C)C)CC3)nc12", "activation": "inconclusive: 137%"},
      {"smiles": "COc1ccccc1-c1nc(SCC(=O)c2ccccc2)n[nH]1", "activation": "inconclusive: 138%"},
      {"smiles": "COc1ccc(CNC(=O)Cn2c(SCC(=O)Nc3ccc(OC)cc3)nc3ccccc32)cc1", "activation": "inconclusive: 55.2%"},
      {"smiles": "Cc1cc(C(F)(F)F)n2nc(-c3ccc(Br)cc3)cc2n1", "activation": "inactive: -13.4%"},
      {"smiles": "COc1ccccc1N1CCN(c2ncnc3c2cnn3-c2cc(Cl)ccc2C)CC1", "activation": "inconclusive: 140%"},
      {"smiles": "CC(=O)N[C@@H](CO)C(=O)N[C@@H](CC(=O)O)C(=O)N[C@@H](CCCCN)C(=O)N1CCC[C@H]1C(=O)O", "note": "(Ac-SDKP-OH)", "activation": "inactive: 7.88%"},
      {"smiles": "Cc1ccc(CSc2nc3ccc(NC(=O)COc4ccccc4)cc3s2)cc1", "activation": "active: 73.8%"},
      {"smiles": "CN(C)CCOC1=Cc2ccccc2Sc2ccc(Cl)cc21", "activation": "inactive: 7.53%"},
      {"smiles": "CCOC(=O)c1ccccc1NC(=O)CSc1ncc(CO)n1Cc1ccc(C)cc1", "activation": "active: 73.8%"},
      {"smiles": "Cc1ccn2c(Nc3c(C)cccc3C)c(-c3ccsc3)nc2c1", "activation": "inconclusive: 57.8%"},
      {"smiles": "Cc1ccc(Cl)cc1-n1nnc(-c2nsc(NC(=O)c3ccccc3Cl)n2)c1C", "activation": "inconclusive: 52.1%"},
      {"smiles": "CC1=C(c2ccc(C(C)C)cc2)S(=O)(=O)N=C1N1CCC(C(=O)NCc2ccccc2)CC1", "activation": "inconclusive: 129%"},
      {"smiles": "COc1ccccc1C(=O)N(Cc1nc(-c2cccc(C)c2)no1)C(C)C", "activation": "active: 86.6%"},
      {"smiles": "CC(C)CCOc1ccc(C2N=C(N)Nc3nc4ccccc4n32)cc1", "note": "(stereo unspecified)", "activation": "inconclusive: 213%"},
      {"smiles": "O=C(OCCN1CCOCC1)c1cccnc1Nc1cccc(C(F)(F)F)c1", "activation": "inconclusive: 151%"},
      {"smiles": "Cc1cc(N2CCN(C)CC2)nc2ccc(NC(=O)Nc3ccccc3)cc12", "activation": "inconclusive: 353%"},
      {"smiles": "Cc1cccc(-c2noc(-c3ccc(N4CCCC4)c([N+](=O)[O-])c3)n2)c1", "activation": "inactive: 1.21%"},
      {"smiles": "CCOc1ccc(CNC(=O)c2ccc3[nH]c(C)c(C)c3c2)cc1OC", "activation": "inactive: -2.48%"},
      {"smiles": "COc1cccc(CNCc2cccn2-c2nnc(N3CCN(c4ccccc4)CC3)s2)c1", "activation": "inconclusive: 124%"},
      {"smiles": "O=C(CSc1nc(-c2ccccc2F)nc2cc(=O)[nH]n12)Nc1cccc(C(F)(F)F)c1", "activation": "inconclusive: 56.3%"},
      {"smiles": "Cc1ccc(OCC(=O)Nc2ccc(S(=O)(=O)Nc3cc(C)on3)cc2)c(Br)c1", "activation": "inconclusive: 164%"},
      {"smiles": "O=C(O)c1c(-c2ccccc2)oc2ccc(OCc3c(F)cccc3Cl)cc12", "activation": "inconclusive: 249%"},
      {"smiles": "O=C(Nc1ccc(O)cc1)c1cccc(S(=O)(=O)N2CCOCC2)c1", "activation": "inactive: -25.6%"},
      {"smiles": "Cc1ccc(-n2ncc3c(Nc4cccc(C)c4)ncnc32)cc1", "activation": "inconclusive: 50.2%"},
      {"smiles": "COC(=O)CCCCC(CCSS/C(CCO)=C(\\C)N(C=O)Cc1cnc(C)nc1N)SC(C)=O", "note": "(stereo unspecified)", "activation": "inactive: -49.4%"},
      {"smiles": "O=c1oc2c(CN3CCOCC3)c(O)ccc2cc1-c1ccc(Cl)cc1", "activation": "inconclusive: 53.5%"},
      {"smiles": "CCCn1c(=O)sc2cc(NC(=O)c3ccccc3OCC)ccc21", "activation": "inconclusive: 186%"},
      {"smiles": "CCn1c(SCC(=O)c2ccc([N+](=O)[O-])cc2)nnc1-c1ccc(Cl)cc1", "activation": "inconclusive: 135%"},
      {"smiles": "CCCC(O)c1nc2ccccc2n1CCCCOc1ccc(OC)cc1", "note": "(stereo unspecified)", "activation": "active: 90.8%"},
      {"smiles": "Cc1ccc(CSc2nc3ccc(NC(=O)COc4ccc(F)cc4)cc3s2)cc1", "activation": "active: 88.2%"},
      {"smiles": "Nc1nonc1C(=O)NCCNCc1ccc(Cl)c(Cl)c1", "activation": "inconclusive: 50.2%"},
      {"smiles": "CCn1ccc2c(OCC(=O)NCc3ccc(C)cc3)cccc2c1=O", "activation": "inconclusive: 126%"},
      {"smiles": "O=C(Nc1cc(Cl)cc(Cl)c1)c1ccc(F)c(S(=O)(=O)NC2CCCCC2)c1", "activation": "active: 68.5%"},
      {"smiles": "COC(=O)c1cccc(NC(=O)c2nsc3ccccc23)c1", "activation": "inactive: -21.7%"},
      {"smiles": "CCCCn1c(NCc2cc(Br)ccc2O)nc2ccccc21", "activation": "inconclusive: 145%"},
      {"smiles": "COc1cc(CNC(=O)c2ccc3nc(Cc4ccccc4)oc3c2)cc(OC)c1OC", "activation": "inactive: 14.4%"},
      {"smiles": "Cc1nc(-c2ccc(S(=O)(=O)Nc3ccc(Cl)c(C(F)(F)F)c3)cc2)co1", "activation": "inconclusive: 56.9%"},
      {"smiles": "CCN(CC)CCOC(=O)c1ccc(NC(=O)c2cc3c(s2)-c2ccccc2OC3)cc1", "activation": "inconclusive: 50.4%"},
      {"smiles": "COc1ccc(Cn2c(C(=O)O)c(CNCc3ccc(C)o3)c3ccc(C)cc32)cc1", "activation": "inconclusive: 190%"},
      {"smiles": "COc1ccc(C(=O)Nc2ccc(-c3nnc4n3CCCCC4)cc2)cc1OC", "activation": "inconclusive: 51.2%"},
      {"smiles": "Cc1ccccc1Nc1nc(-c2cccc(Cl)c2)c2c(n1)-c1ccccc1OC2", "activation": "inactive: 13.1%"},
      {"smiles": "CCOc1ccc(NC(=O)c2ccc3c(c2)CCN3S(=O)(=O)CC)cc1", "activation": "active: 67.4%"},
      {"smiles": "c1ccc(CN2CCN(c3ncnc4c3cnn4-c3ccccc3)CC2)cc1", "activation": "inconclusive: 51%"},
      {"smiles": "CCn1c(=O)cc(SCC(=O)NCc2ccc(OC)cc2OC)c2ccccc21", "activation": "inactive: 22%"},
      {"smiles": "CCOC(=O)c1c(-c2ccccc2)oc2ccc(N(C(C)=O)S(=O)(=O)c3ccc(CC)cc3)cc12", "activation": "inactive: -10.7%"},
      {"smiles": "COc1ccc(Nc2ncnc3c2nc2n3CCCCC2)cc1", "activation": "active: 76.9%"},
      {"smiles": "COCCNc1nc(NCc2cccc(Cl)c2)c2cnn(C)c2n1", "activation": "inconclusive: 122%"},
      {"smiles": "CCOc1ccc(NS(=O)(=O)c2ccc3c4c(cccc24)C(=O)N3)cc1", "activation": "inconclusive: 58.4%"},
      {"smiles": "COc1ccc(/C=C/C(=O)Nc2nc(-c3cccs3)ns2)cc1OC", "activation": "inactive: 29.1%"},
      {"smiles": "Cc1ccc(CNC(=O)c2ccc3nc(SCc4ccc(F)cc4)[nH]c3c2)cc1", "activation": "inactive: 13.7%"},
      {"smiles": "COc1ccc(C(=O)CC2(O)C(=O)N(Cc3cccc(C(F)(F)F)c3)c3ccccc32)cc1", "note": "(stereo unspecified)", "activation": "inconclusive: 140%"},
      {"smiles": "Cc1cccc(OC(=O)c2cc(-c3ccc(C)c(C)c3)on2)c1", "activation": "inactive: -22.9%"},
      {"smiles": "Cc1ccc(NS(=O)(=O)c2ccc3nc(-c4ccccc4)[nH]c3c2)c(Br)c1", "activation": "inconclusive: 128%"},
      {"smiles": "CCCOc1ccc(C(=O)N2CCC(c3nc4ccccc4s3)CC2)cc1", "activation": "inactive: -0.305%"}
    ]}
  ]
}
